Assay results from the supplement of paper PMC4166925.
± gives the standard deviation of the averaged measurements. In all, about 33,000 sequences were measured (“E-score (dimensionless, -0.5 to 0.5)”: median about -0.046, highest 2% from about 0.36 on). This is one part of the list.

test system: T1, SpTbr T-box DNA-binding domain (GST fusion); assay: PBM E-score of 8-mer (E-score (dimensionless, -0.5 to 0.5)); Tbr is Tbrain of the sea star Patiria miniata (Pm) or the sea urchin Strongylocentrotus purpuratus (Sp); higher = stronger binding preference; most listed sequences are background and not binding sites; settings: the construct has about 5 more residues each side
T1 sequence: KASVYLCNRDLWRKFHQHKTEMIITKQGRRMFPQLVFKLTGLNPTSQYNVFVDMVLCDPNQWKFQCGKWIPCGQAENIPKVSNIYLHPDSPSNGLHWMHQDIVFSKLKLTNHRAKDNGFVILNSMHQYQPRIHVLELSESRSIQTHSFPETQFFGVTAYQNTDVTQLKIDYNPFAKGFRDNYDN
In short: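 GST-fused Tbr T-box DNA-binding domains (the whole T-box plus about five flanking residues) were expressed in BL21 E. coli at 20 °C and purified by glutathione affinity chromatography. Universal Agilent oligonucleotide arrays were made double-stranded by primer extension, incubated with 200 nM protein in PBS (pH 7.5), then scanned and quantified. Every ungapped 8-mer was scored from probe intensities. The Universal PBM Analysis Suite gave each word an enrichment E-score, averaged over duplicate arrays.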

Sequence | PBM E-score of 8-mer
ACCTCATC | -0.0449 ± 0.071
CGGGCTTA | -0.207 ± 0.027
CGGACCCG | 0.0712 ± 0.068
AGCGGGTG | 0.259 ± 0.027
GATTACAC | 0.326 ± 0.022
GCAAGGGA | -0.0505 ± 0.022
ACCTTCAC | 0.3011 ± 0.0014
ATATTATC | -0.000595 ± 0.005
AGTCGCTA | 0.276 ± 0.033
CATAGCCA | -0.0202 ± 0.041
CTAGGCCC | -0.305 ± 0.051
GTGGGACA | 0.12 ± 0.043
CAAGTCCC | 0.0954 ± 0.012
GACCGTAC | -0.15 ± 0.024
CACTGAAA | 0.0593 ± 0.057
ATGTCCAC | -0.16 ± 0.088
ATCCTATA | -0.0834 ± 0.011
CGATAATC | 0.153 ± 0.056
ACGTCACC | 0.224 ± 0.053
ACACCAGG | 0.251 ± 0.02
AAATCAAC | 0.0957 ± 0.027
CTCGCTCC | 0.0375 ± 0.052

Sequence | PBM E-score of 8-mer
AGGTATTC | 0.044 ± 0.074
AATACGCA | 0.0873 ± 0.018
ACGCGGGC | -0.117 ± 0.035
AGCGAGCA | 0.0954 ± 0.074
GTCGCCTA | 0.14 ± 0.059
CCACGGAC | -0.111 ± 0.032
CGAGCCAA | -0.151 ± 0.032
CTCAGAAA | -0.244 ± 0.042
CTTACCCC | -0.0856 ± 0.04
ACTTGTTG | 0.319 ± 0.0088
AGTACGCA | -0.0448 ± 0.049
AAGAGACG | -0.15 ± 0.032
AAGGAGTG | 0.163 ± 0.07
ATGTACCG | -0.106 ± 0.003
ACCAATAT | 0.115 ± 0.053
CAGACTAA | -0.19 ± 0.09
CGGCTCTA | -0.0822 ± 0.011
ACCTCGCA | 0.24 ± 0.063
AACAGCAA | 0.0761 ± 0.015
CGCCAAGC | 0.115 ± 0.0023
ACACACGC | 0.171 ± 0.04
AACCGTGA | 0.277 ± 0.026

Sequence | PBM E-score of 8-mer
GAGACCTC | -0.305 ± 0.013
CACGGTGA | 0.185 ± 0.04
CTCGGCGC | 0.0434 ± 0.029
ACGCAATG | -0.0244 ± 0.029
CGGCCATA | -0.131 ± 0.035
CGCCATAG | -0.0513 ± 0.0075
ATAGCACC | 0.387 ± 0.011
AGGTCTTA | -0.0667 ± 0.12
ATGTAAAG | -0.233 ± 0.0058
CAGCATAG | -0.0908 ± 0.019
CAGAGTCG | 0.144 ± 0.077
CGTCGGCC | -0.0611 ± 0.048
ATGACAAG | 0.199 ± 0.0097
GAGCCTTA | -0.298 ± 0.017
GACTTGGC | 0.0377 ± 0.00048
GTACGTAC | 0.000805 ± 0.068
GTCATTCA | 0.103 ± 0.013
GCAAAACA | 0.08 ± 0.034
AATACTAT | -0.141 ± 0.092
CGCGGGGA | 0.0133 ± 0.076
ACCCGTAA | -0.0356 ± 0.034
CCCTCGAC | 0.157 ± 0.038

Sequence | PBM E-score of 8-mer
AAGATATA | -0.0525 ± 0.16
CTGCAACA | -0.0244 ± 0.016
CCTGTGTA | -0.175 ± 0.024
ATCTATCA | -0.0518 ± 0.005
AGAGATAC | -0.178 ± 0.017
CAGGAGAG | -0.294 ± 0.031
AGGGTGTC | 0.401 ± 0.015
AGAGCAAA | -0.172 ± 0.065
CCAAGAGG | 0.12 ± 0.0026
CAAGACCA | -0.19 ± 0.1
ATAGAATA | -0.133 ± 0.17
AAGGAGGC | -0.201 ± 0.012
GTCTGCTA | -0.00306 ± 0.017
CCCCCTCG | -0.296 ± 0.043
CATGACGC | 0.0651 ± 0.032
ACTTCTGC | 0.0148 ± 0.00033
ATTATGGG | -0.193 ± 0.019
AACATTCG | -0.0917 ± 0.15
AATTACCG | 0.0981 ± 0.071
GTTCAGAA | -0.168 ± 0.091
AACAAGAA | -0.111 ± 0.07
AGTGGATG | -0.186 ± 0.029

Sequence | PBM E-score of 8-mer
ACAGACCC | 0.0259 ± 0.044
TACCTGAA | -0.191 ± 0.038
AAAGCCCG | -0.07 ± 0.094
AACTATCA | 0.079 ± 0.08
CTGCGCGC | 0.0702 ± 0.03
GTATTACA | -0.0124 ± 0.048
CGGTGCCA | 0.119 ± 0.02
AAAGGTGG | 0.0801 ± 0.026
ACGGCCTA | -0.213 ± 0.011
AGATGGCA | 0.123 ± 0.024
ACCTGAGC | -0.0565 ± 0.027
ACGATTAA | -0.0334 ± 0.035
ACTCAGAT | -0.077 ± 0.02
TCCGCGCA | 0.073 ± 0.057
AGCGGTCA | -0.129 ± 0.009
TCTATTCA | 0.0968 ± 0.0075
GGCTGACA | 0.212 ± 0.011
CATTCGGC | -0.0219 ± 0.054
ACGAGAGG | 0.00413 ± 0.062
TACTTCTA | -0.155 ± 0.094
AATACAGA | 0.0798 ± 0.046
